Assay results taken from PubChem BioAssay AID894 (National Center for Advancing Translational Sciences (NCATS), 2007).
Screen size: about 150,000 compounds; about 6,500 (4.3%) were called active. Inconclusive means that the source gave no clear call. Such entries were picked first, then a sample of the others. Calls follow the shape of the dose curve; as a rule, active = well fitted inhibition curve with a large enough effect (not every such curve was filed as active); inconclusive = small, poorly fitted or top-dose-only effect, or another doubt; inactive = no such curve, though single readings can be large or run the other way. No potency is given beside an inconclusive call; the fits are too rough.

Target: 15-hydroxyprostaglandin dehydrogenase [NAD(+)] (Homo sapiens) (UniProt P15428)
Test: qHTS Assay for Inhibitors of HPGD (15-Hydroxyprostaglandin Dehydrogenase)
Conditions: purified HPGD, NADH fluorescence kinetic, PGE2 substrate; activity change, negative = inhibition: stronger effect = lower value
Method in brief: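 20 nM HPGD preincubated 15 min at room temperature with compound in 50 mM Tris-HCl pH 8, 0.01% Tween 20. Started with 1 mM NAD+ and 30 uM prostaglandin E2; NADH fluorescence (360/450 nm) read 5 times over 30-s intervals, last minus first.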
% is scaled to controls: 0 for no effect and ±100 for the full control effect; potency is read from the fitted curve at half-maximal effect; tags tell the direction and shape of the fitted curve.

UniProt P15428, sequence (P15428 whole entry, looked up): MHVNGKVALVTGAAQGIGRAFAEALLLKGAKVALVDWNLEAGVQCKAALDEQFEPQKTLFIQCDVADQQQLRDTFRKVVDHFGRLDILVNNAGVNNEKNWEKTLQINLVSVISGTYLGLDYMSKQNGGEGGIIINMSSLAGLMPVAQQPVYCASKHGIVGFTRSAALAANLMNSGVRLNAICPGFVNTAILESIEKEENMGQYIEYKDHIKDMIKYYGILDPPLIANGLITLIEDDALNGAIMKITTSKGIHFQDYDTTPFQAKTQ

Row | Structure (SMILES) | Potency | activity change, negative = inhibition
1 | COc1ccc(OC)c2[nH]c(C(=O)O)cc12 | inconclusive [inhibitor, single point] | –
2 | CCOc1ccc2c(C)c(Cl)c(=O)oc2c1 | inconclusive [inhibitor, partial curve] | –
3 | COc1ccc(C(=O)Nc2nc3c(s2)CCCC3)cc1S(=O)(=O)N1CCCc2ccccc21 | inconclusive [inhibitor, partial curve] | –
4 | CCCOc1ccc(-c2nn(-c3ccccc3)cc2/C=C2\SC(N)=NC2=O)cc1C | active: 10 µM | –
5 | COC1=C(c2ccccc2)C(=O)c2ccccc2C1=O | – | inactive: -6.74%
6 | COc1cc(/C=C/C2=NC(=O)C(C)(C)O2)ccc1O | – | inactive: -25.1%
7 | COc1ccc(-c2cc(C(=O)Oc3ccc([N+](=O)[O-])cc3)c3ccccc3n2)cc1 | inconclusive [inhibitor, partial curve] | –
8 | CSCCC(NC(=O)c1ccccc1)C(=O)NC1CCCC1 (centres undefined) | – | inactive: -5.75%
9 | Cc1cc(F)ccc1S(=O)(=O)N1CCCOC1CNC(=O)C(=O)NCCC1=CCCCC1 (centres undefined) | – | inactive: -6.01%
10 | CN1CCC2(CCN3CCc4c(oc5ccccc45)C3C2)N(C)C1=O (centres undefined) | – | inactive: -26.5%
11 | CCN(CC)S(=O)(=O)c1cccc2c(N(C)C)cccc12 | – | inactive: -20.7%
12 | c1ccc(-n2ncc3c2ncn2nc(CSc4nc5ccccc5s4)nc32)cc1 | inconclusive [inhibitor, partial curve] | –
13 | Cc1ccc(OCCN2C(=O)c3ccccc3C2=O)c(C)c1 | active: 22.4 µM | –
14 | O=C(O)COc1cccc(-c2ocnc2-c2nc(-c3ccccc3)c(-c3ccccc3)o2)c1 | inconclusive [inhibitor, full curve] | –
15 | COCCNC(=O)c1ccc(Cn2c(=S)[nH]c3cc4c(cc3c2=O)OCO4)cc1 | active: 12.6 µM | –
16 | COC(=O)[C@@]1(Cc2ccc(OC)cc2)[C@H]2c3cc(C(=O)N4CCCC4)n(CCc4ccc(O)c(OC)c4)c3C[C@H]2CN1C(=O)c1ccccc1 | – | inactive: -4.6%
17 | Cc1ccc(NC(=O)c2ccc(OC(=O)CCN3C(=O)c4ccccc4C3=O)cc2)cc1 | inconclusive [inhibitor, partial curve] | –
18 | Cc1ccc2nc(-c3ccc(NS(=O)(=O)c4ccc(F)c(F)c4)cc3)sc2c1 | inconclusive [inhibitor, partial curve] | –
19 | Cc1cc(C)cc(-n2c(N)c(C(=O)Nc3c(C)n(C)n(-c4ccccc4)c3=O)c3nc4ccccc4nc32)c1 | inconclusive [inhibitor, partial curve] | –
